# Experimental data from patent US20250213530A1 (GH RESEARCH IRELAND LIMITED, priority 2022, published 2025).
# Key:
# [1] = test system: patients with treatment-resistant major depressive disorder (TRD); experiment: Phase 1/2 clinical trial of inhaled 5-MeO-DMT, BPRS; settings: for BPRS Emotional Withdrawal, sum of patient scores: baseline 13; for BPRS Anxiety, sum of patient scores: baseline 25
# [2] = test system: patients with treatment-resistant major depressive disorder (TRD); experiment: Phase 1/2 clinical trial of inhaled 5-MeO-DMT, MADRS
# [3] = 12 mg n = 4, 2 hours after dose, baseline 16
# [4] = 12 mg n = 4, day 1, baseline 16
# [5] = 12 mg n = 4, day 7, baseline 16
smiles,measurement,setting,value
COc1ccc2[nH]cc(CCN(C)C)c2c1 [5-MeO-DMT],"BPRS Blunted Affect, sum of patient scores","[1]; 12 mg n = 4, 3 hours after dose, baseline 11",8
same,"BPRS Tension, sum of patient scores","[1]; 12 mg n = 4, 3 hours after dose, baseline 14",9
same,"BPRS Guilt Feelings, sum of patient scores","[1]; 12 mg n = 4, 3 hours after dose, baseline 18",9
same,"BPRS Blunted Affect, sum of patient scores","[1]; 12 mg n = 4, day 1, baseline 11",6
same,"BPRS Emotional Withdrawal, sum of patient scores","[1]; 12 mg n = 4, day 1",8
same,"BPRS Tension, sum of patient scores","[1]; 12 mg n = 4, day 1, baseline 14",6
same,"BPRS Guilt Feelings, sum of patient scores","[1]; 12 mg n = 4, day 1, baseline 18",5
same,"BPRS Anxiety, sum of patient scores","[1]; 12 mg n = 4, day 1",6
same,"BPRS Blunted Affect, sum of patient scores","[1]; 12 mg n = 4, day 7, baseline 11",5
same,"BPRS Emotional Withdrawal, sum of patient scores","[1]; 12 mg n = 4, day 7",6
same,"BPRS Tension, sum of patient scores","[1]; 12 mg n = 4, day 7, baseline 14",6
same,"BPRS Guilt Feelings, sum of patient scores","[1]; 12 mg n = 4, day 7, baseline 18",5
same,"BPRS Anxiety, sum of patient scores","[1]; 12 mg n = 4, day 7",6
same,"BPRS Emotional Withdrawal, sum of patient scores","[1]; IDR n = 8, day 1",8
same,"BPRS Blunted Affect, sum of patient scores","[1]; IDR n = 8, day 1, baseline 15",8
same,"BPRS Emotional Withdrawal, sum of patient scores","[1]; IDR n = 8, day 7",8
same,"BPRS Blunted Affect, sum of patient scores","[1]; IDR n = 8, day 7, baseline 15",8
same,"BPRS Tension, sum of patient scores","[1]; IDR n = 8, day 7, baseline 16",10
same,"BPRS Guilt Feelings, sum of patient scores","[1]; IDR n = 8, day 7, baseline 34",10
same,"MADRS Suicidal Thoughts, sum of patient scores","[2]; 12 mg n = 4, 2 hours after dose, baseline 8",3
same,"MADRS Inner Tension, sum of patient scores","[2]; 12 mg n = 4, 2 hours after dose, baseline 13",2
same,"MADRS Concentration Difficulties, sum of patient scores",[2]; [3],7
same,"MADRS Inability to Feel, sum of patient scores",[2]; [3],9
same,"MADRS Lassitude, sum of patient scores",[2]; [3],10
same,"MADRS Pessimistic Thoughts, sum of patient scores",[2]; [3],8
same,"MADRS Suicidal Thoughts, sum of patient scores","[2]; 12 mg n = 4, day 1, baseline 8",5
same,"MADRS Reduced Sleep, sum of patient scores","[2]; 12 mg n = 4, day 1, baseline 12",10
same,"MADRS Inner Tension, sum of patient scores","[2]; 12 mg n = 4, day 1, baseline 13",3
same,"MADRS Concentration Difficulties, sum of patient scores",[2]; [4],2
same,"MADRS Inability to Feel, sum of patient scores",[2]; [4],1
same,"MADRS Lassitude, sum of patient scores",[2]; [4],0
same,"MADRS Pessimistic Thoughts, sum of patient scores",[2]; [4],7
same,"MADRS Suicidal Thoughts, sum of patient scores","[2]; 12 mg n = 4, day 7, baseline 8",7
same,"MADRS Reduced Sleep, sum of patient scores","[2]; 12 mg n = 4, day 7, baseline 12",6
same,"MADRS Inner Tension, sum of patient scores","[2]; 12 mg n = 4, day 7, baseline 13",5
same,"MADRS Concentration Difficulties, sum of patient scores",[2]; [5],3
same,"MADRS Inability to Feel, sum of patient scores",[2]; [5],1
same,"MADRS Lassitude, sum of patient scores",[2]; [5],3
same,"MADRS Pessimistic Thoughts, sum of patient scores",[2]; [5],8
same,"MADRS Suicidal Thoughts, sum of patient scores","[2]; IDR n = 8, 2 hours after last dose, baseline 11",3
same,"MADRS Lassitude, sum of patient scores","[2]; IDR n = 8, 2 hours after last dose, baseline 27",10
same,"MADRS Pessimistic Thoughts, sum of patient scores","[2]; IDR n = 8, 2 hours after last dose, baseline 28",7
same,"MADRS Suicidal Thoughts, sum of patient scores","[2]; IDR n = 8, day 1, baseline 11",1
same,"MADRS Inner Tension, sum of patient scores","[2]; IDR n = 8, day 1, baseline 26",6
same,"MADRS Lassitude, sum of patient scores","[2]; IDR n = 8, day 1, baseline 27",5
same,"MADRS Pessimistic Thoughts, sum of patient scores","[2]; IDR n = 8, day 1, baseline 28",4
same,"MADRS Concentration Difficulties, sum of patient scores","[2]; IDR n = 8, day 1, baseline 30",1
same,"MADRS Inability to Feel, sum of patient scores","[2]; IDR n = 8, day 1, baseline 36",2
same,"MADRS Suicidal Thoughts, sum of patient scores","[2]; IDR n = 8, day 7, baseline 11",3
same,"MADRS Reduced Sleep, sum of patient scores","[2]; IDR n = 8, day 7, baseline 25",9
same,"MADRS Lassitude, sum of patient scores","[2]; IDR n = 8, day 7, baseline 27",3
same,"MADRS Pessimistic Thoughts, sum of patient scores","[2]; IDR n = 8, day 7, baseline 28",3
same,"MADRS Concentration Difficulties, sum of patient scores","[2]; IDR n = 8, day 7, baseline 30",9
same,"MADRS Inability to Feel, sum of patient scores","[2]; IDR n = 8, day 7, baseline 36",6
same,patients with MADRS remission (total score less than or equal to 10),"[2]; Part A, 12 mg single dose, n=4, day seven",50%
